# Assay results published in the supplement of paper PMC8728848.
# The other results are listed elsewhere or left out.
# B1: LgFlo1 (Saccharomyces pastorianus), B3IUA8 (protein)
# chain: SGSTQACLPVGSRKNGMNVNFYKYSLQDSTTYSDPQYMAYKYSDTKKLGSVSGQTHLSIYYGPNTAFWNTASWSSDLFGFYTTPTNVTVEMTGYFLPPQTGSYTFKFATVDDSAILSVGGSIAFECCAQEQPPITSTDFTINGIKPWDAATPTDIKGSTYMYAGYYYPIKIVYSNAKALARLPVSVVLPDGTEVNDDFEGYVYSFDDDLSQSNCTIPDPSKHTTS
# Key:
# Experiment in all cases: glycan array binding signal (z-score within array); higher = stronger binding
# Conditions in all cases: glycan notation: IUPAC condensed, linker removed
# Gal6S(b1-4)Glc = target: Gal6S(b1-4)Glc
# How it was run: (§1)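 The Consortium for Functional Glycomics database supplied 3228 glycan arrays, of which those lacking an available protein sequence were dropped. The binding signal, a within-array Z-score, was averaged across arrays of the same protein sequence and across linkers. Negative scores can be read as non-binding.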
# Gal6S(b1-4)Glc6S = target: Gal6S(b1-4)Glc6S
# How it was run: as §1
# Gal6S(b1-4)GlcNAc = target: Gal6S(b1-4)GlcNAc
# How it was run: as §1
# Gal6S(b1-4)GlcNAc6S = target: Gal6S(b1-4)GlcNAc6S
# How it was run: as §1
# GalNAc(a1-3)Gal = target: GalNAc(a1-3)Gal
# How it was run: as §1
# GalNAc(a1-3)GalNAc = target: GalNAc(a1-3)GalNAc
# How it was run: as §1
# [1] = target: GalNAc(a1-3)GalNAc(b1-3)Gal(a1-4)Gal(b1-4)Glc
# How it was run: as §1
# [2] = target: GalNAc(a1-3)GalNAc(b1-3)Gal(a1-4)Gal(b1-4)GlcNAc
# How it was run: as §1
# GalNAc(b1-3)Gal = target: GalNAc(b1-3)Gal
# How it was run: as §1
# [3] = target: GalNAc(b1-3)Gal(a1-4)Gal(b1-4)GlcNAc
# How it was run: as §1
# [4] = target: GalNAc(b1-3)Gal(a1-4)Gal(b1-4)GlcNAc(b1-3)Gal(b1-4)Glc
# How it was run: as §1
# [5] = target: GalNAc(b1-3)Gal(a1-6)Gal(b1-4)Glc
# How it was run: as §1
# GalNAc(b1-3)GalNAc = target: GalNAc(b1-3)GalNAc
# How it was run: as §1
# GalNAc(b1-3)GlcNAc = target: GalNAc(b1-3)GlcNAc
# How it was run: as §1
# GalNAc(b1-4)Gal(b1-4)Glc = target: GalNAc(b1-4)Gal(b1-4)Glc
# How it was run: as §1
# GalNAc(b1-4)GlcNAc = target: GalNAc(b1-4)GlcNAc
# How it was run: as §1
# [6] = target: GalNAc(b1-4)GlcNAc(b1-2)Man
# How it was run: as §1
# [7] = target: GalNAc(b1-4)GlcNAc(b1-2)Man(a1-3)[GalNAc(b1-4)GlcNAc(b1-2)Man(a1-6)]Man(b1-4)GlcNAc(b1-4)GlcNAc
# How it was run: as §1
# [8] = target: GalNAc(b1-4)GlcNAc(b1-3)GalNAc(b1-4)GlcNAc
# How it was run: as §1
# GalNAc(b1-4)GlcNAc6S = target: GalNAc(b1-4)GlcNAc6S
# How it was run: as §1
# GalNAc(b1-6)GalNAc = target: GalNAc(b1-6)GalNAc
# How it was run: as §1
# GalNAc3S(b1-4)GlcNAc = target: GalNAc3S(b1-4)GlcNAc
# How it was run: as §1
# GalNAc3S(b1-4)GlcNAc3S = target: GalNAc3S(b1-4)GlcNAc3S
# How it was run: as §1
# [9] = target: GalNAc3S(b1-4)[Fuc(a1-3)]GlcNAc
# How it was run: as §1
# GalNAc4S6S(b1-4)GlcNAc = target: GalNAc4S6S(b1-4)GlcNAc
# How it was run: as §1
# GalNAc6S(b1-4)GlcNAc = target: GalNAc6S(b1-4)GlcNAc
# How it was run: as §1
# Glc(a1-4)Glc = target: Glc(a1-4)Glc
# How it was run: as §1
# [10] = target: Glc(a1-4)Glc(a1-4)Glc(a1-4)Glc
# How it was run: as §1
# Glc(a1-6)Glc(a1-6)Glc = target: Glc(a1-6)Glc(a1-6)Glc
# How it was run: as §1
# [11] = target: Glc(a1-6)Glc(a1-6)Glc(a1-6)Glc
# How it was run: as §1
# Glc(b1-4)Glc = target: Glc(b1-4)Glc
# How it was run: as §1
# Glc(b1-6)Glc = target: Glc(b1-6)Glc
# How it was run: as §1
# GlcA(b1-3)Gal = target: GlcA(b1-3)Gal
# How it was run: as §1
# GlcA(b1-3)GlcNAc = target: GlcA(b1-3)GlcNAc
# How it was run: as §1
# GlcA(b1-6)Gal = target: GlcA(b1-6)Gal
# How it was run: as §1
# [12] = target: GlcA3S(b1-3)Gal(b1-4)GlcNAc(b1-2)Man
# How it was run: as §1
# [13] = target: GlcA3S(b1-3)Gal(b1-4)GlcNAc(b1-3)Gal(b1-4)Glc
# How it was run: as §1
# [14] = target: GlcNAc(a1-3)Gal(b1-4)GlcNAc
# How it was run: as §1
# [15] = target: GlcNAc(a1-4)Gal(b1-3)GlcNAc
# How it was run: as §1
# [16] = target: GlcNAc(a1-4)Gal(b1-4)GalNAc
# How it was run: as §1
# [17] = target: GlcNAc(a1-4)Gal(b1-4)GlcNAc
# How it was run: as §1
# [18] = target: GlcNAc(a1-4)Gal(b1-4)GlcNAc(b1-3)Gal(b1-4)Glc
# How it was run: as §1
# [19] = target: GlcNAc(a1-4)Gal(b1-4)GlcNAc(b1-3)Gal(b1-4)GlcNAc
# How it was run: as §1
# [20] = target: GlcNAc(a1-4)Gal(b1-4)GlcNAc(b1-3)Gal(b1-4)GlcNAc(b1-3)Gal(b1-4)GlcNAc
# How it was run: as §1
# [21] = target: GlcNAc(a1-4)Gal(b1-4)GlcNAc(b1-3)Gal(b1-4)[Fuc(a1-3)]GlcNAc(b1-3)Gal(b1-4)[Fuc(a1-3)]GlcNAc
# How it was run: as §1
binder,measurement,setting,value
B1,glycan array binding signal (z-score),Gal6S(b1-4)Glc,0.098
same,glycan array binding signal (z-score),Gal6S(b1-4)Glc6S,1.01
same,glycan array binding signal (z-score),Gal6S(b1-4)GlcNAc,-0.114
same,glycan array binding signal (z-score),Gal6S(b1-4)GlcNAc6S,1.76
same,glycan array binding signal (z-score),GalNAc(a1-3)Gal,0.471
same,glycan array binding signal (z-score),GalNAc(a1-3)GalNAc,0.064
same,glycan array binding signal (z-score),[1],-0.265
same,glycan array binding signal (z-score),[2],-0.141
same,glycan array binding signal (z-score),GalNAc(b1-3)Gal,-0.14
same,glycan array binding signal (z-score),[3],-0.222
same,glycan array binding signal (z-score),[4],-0.173
same,glycan array binding signal (z-score),[5],-0.218
same,glycan array binding signal (z-score),GalNAc(b1-3)GalNAc,-0.422
same,glycan array binding signal (z-score),GalNAc(b1-3)GlcNAc,-0.426
same,glycan array binding signal (z-score),GalNAc(b1-4)Gal(b1-4)Glc,1.21
same,glycan array binding signal (z-score),GalNAc(b1-4)GlcNAc,-0.347
same,glycan array binding signal (z-score),[6],-0.405
same,glycan array binding signal (z-score),[7],-0.047
same,glycan array binding signal (z-score),[8],-0.273
same,glycan array binding signal (z-score),GalNAc(b1-4)GlcNAc6S,-0.421
same,glycan array binding signal (z-score),GalNAc(b1-6)GalNAc,-0.002
same,glycan array binding signal (z-score),GalNAc3S(b1-4)GlcNAc,-0.342
same,glycan array binding signal (z-score),GalNAc3S(b1-4)GlcNAc3S,-0.174
same,glycan array binding signal (z-score),[9],0.374
same,glycan array binding signal (z-score),GalNAc4S6S(b1-4)GlcNAc,-0.133
same,glycan array binding signal (z-score),GalNAc6S(b1-4)GlcNAc,-0.305
same,glycan array binding signal (z-score),Glc(a1-4)Glc,-0.454
same,glycan array binding signal (z-score),[10],-0.301
same,glycan array binding signal (z-score),Glc(a1-6)Glc(a1-6)Glc,-0.471
same,glycan array binding signal (z-score),[11],-0.225
same,glycan array binding signal (z-score),Glc(b1-4)Glc,-0.511
same,glycan array binding signal (z-score),Glc(b1-6)Glc,-0.033
same,glycan array binding signal (z-score),GlcA(b1-3)Gal,-0.201
same,glycan array binding signal (z-score),GlcA(b1-3)GlcNAc,-0.253
same,glycan array binding signal (z-score),GlcA(b1-6)Gal,0.596
same,glycan array binding signal (z-score),[12],-0.03
same,glycan array binding signal (z-score),[13],0.171
same,glycan array binding signal (z-score),[14],-0.343
same,glycan array binding signal (z-score),[15],-0.29
same,glycan array binding signal (z-score),[16],-0.277
same,glycan array binding signal (z-score),[17],-0.166
same,glycan array binding signal (z-score),[18],-0.25
same,glycan array binding signal (z-score),[19],-0.288
same,glycan array binding signal (z-score),[20],-0.3
same,glycan array binding signal (z-score),[21],-0.078
